# From the supplement of paper PMC8728848
# The other results are listed elsewhere or left out.
# B1: XCL (Xerocomus chrysenteron) (protein)
# chain: MSYSITLRVYQTNRDRGYFSIVEKTVWHFANGGTWSEANGAHTLTQGGSGTSGVLRFLSTKGERITVAVGVHNYKRWCDVVTGLKPDETALVINPQYYNNGGRDYVREKQLAEYSVTSAIGTKVEVVYTVAEGNNLEANVIFS
# Tests used:
# Experiment in all cases: glycan array binding signal (z-score within array); higher = stronger binding
# Conditions in all cases: glycan notation: IUPAC condensed, linker removed
# [1] = target: Neu5Ac(a2-3)Gal(b1-4)GlcNAc(b1-3)GalNAc
# Summary of the method: (§1)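 Glycan array data came from 3228 arrays in the Consortium for Functional Glycomics database, and only arrays with an available protein sequence were kept. Glycan names were put into IUPAC-condensed notation, and columns mapping to the same glycan were averaged. The binding signal is a within-array Z-score, averaged across arrays of one protein sequence run at different concentrations or buffers and across linkers. A negative Z-score can be read as non-binding.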
# [2] = target: Neu5Ac(a2-3)Gal(b1-4)GlcNAc(b1-6)[Gal(b1-3)]GalNAc
# Summary of the method: as §1
# [3] = target: Neu5Ac(a2-3)Gal(b1-4)GlcNAc(b1-6)[Neu5Ac(a2-3)Gal(b1-3)]GalNAc
# Summary of the method: as §1
# [4] = target: Neu5Ac(a2-3)Gal(b1-4)GlcNAc6S
# Summary of the method: as §1
# [5] = target: Neu5Ac(a2-3)Gal(b1-4)[Fuc(a1-3)]GlcNAc
# Summary of the method: as §1
# [6] = target: Neu5Ac(a2-3)Gal(b1-4)[Fuc(a1-3)]GlcNAc(b1-3)Gal
# Summary of the method: as §1
# [7] = target: Neu5Ac(a2-3)Gal(b1-4)[Fuc(a1-3)]GlcNAc(b1-3)Gal(b1-4)GlcNAc
# Summary of the method: as §1
# [8] = target: Neu5Ac(a2-3)Gal(b1-4)[Fuc(a1-3)]GlcNAc(b1-3)Gal(b1-4)[Fuc(a1-3)]GlcNAc(b1-3)Gal(b1-4)[Fuc(a1-3)]GlcNAc
# Summary of the method: as §1
# [9] = target: Neu5Ac(a2-3)Gal(b1-4)[Fuc(a1-3)]GlcNAc(b1-3)GalNAc
# Summary of the method: as §1
# [10] = target: Neu5Ac(a2-3)Gal(b1-4)[Fuc(a1-3)]GlcNAc(b1-6)[Gal(b1-3)]GalNAc
# Summary of the method: as §1
# [11] = target: Neu5Ac(a2-3)Gal(b1-4)[Fuc(a1-3)]GlcNAc6S
# Summary of the method: as §1
# [12] = target: Neu5Ac(a2-3)Gal6S(b1-4)GlcNAc
# Summary of the method: as §1
# [13] = target: Neu5Ac(a2-3)Gal6S(b1-4)[Fuc(a1-3)]GlcNAc
# Summary of the method: as §1
# Neu5Ac(a2-3)GalNAc = target: Neu5Ac(a2-3)GalNAc
# Summary of the method: as §1
# [14] = target: Neu5Ac(a2-3)GalNAc(b1-4)GlcNAc
# Summary of the method: as §1
# [15] = target: Neu5Ac(a2-3)[GalNAc(b1-4)]Gal(b1-4)Glc
# Summary of the method: as §1
# [16] = target: Neu5Ac(a2-3)[GalNAc(b1-4)]Gal(b1-4)GlcNAc
# Summary of the method: as §1
# [17] = target: Neu5Ac(a2-3)[GalNAc(b1-4)]Gal(b1-4)GlcNAc(b1-3)GalNAc
# Summary of the method: as §1
# [18] = target: Neu5Ac(a2-3)[Neu5Ac(a2-6)]GalNAc
# Summary of the method: as §1
# Neu5Ac(a2-6)Gal = target: Neu5Ac(a2-6)Gal
# Summary of the method: as §1
# [19] = target: Neu5Ac(a2-6)Gal(b1-3)GlcNAc(b1-3)[Gal(b1-4)GlcNAc(b1-6)]Gal(b1-4)Glc
# Summary of the method: as §1
# Neu5Ac(a2-6)Gal(b1-4)Glc = target: Neu5Ac(a2-6)Gal(b1-4)Glc
# Summary of the method: as §1
# [20] = target: Neu5Ac(a2-6)Gal(b1-4)GlcNAc
# Summary of the method: as §1
# [21] = target: Neu5Ac(a2-6)Gal(b1-4)GlcNAc(b1-2)Man(a1-3)Man(b1-4)GlcNAc(b1-4)GlcNAc
# Summary of the method: as §1
# [22] = target: Neu5Ac(a2-6)Gal(b1-4)GlcNAc(b1-2)Man(a1-3)[Gal(b1-4)GlcNAc(b1-2)Man(a1-6)]Man(b1-4)GlcNAc(b1-4)GlcNAc
# Summary of the method: as §1
# [23] = target: Neu5Ac(a2-6)Gal(b1-4)GlcNAc(b1-2)Man(a1-3)[GlcNAc(b1-2)Man(a1-6)]Man(b1-4)GlcNAc(b1-4)GlcNAc
# Summary of the method: as §1
# [24] = target: Neu5Ac(a2-6)Gal(b1-4)GlcNAc(b1-2)Man(a1-3)[GlcNAc(b1-2)Man(b1-4)GlcNAc(b1-2)Man(a1-6)]Man(b1-4)GlcNAc(b1-4)GlcNAc
# Summary of the method: as §1
# [25] = target: Neu5Ac(a2-6)Gal(b1-4)GlcNAc(b1-2)Man(a1-3)[Man(a1-6)]Man(b1-4)GlcNAc(b1-4)GlcNAc
# Summary of the method: as §1
# [26] = target: Neu5Ac(a2-6)Gal(b1-4)GlcNAc(b1-2)Man(a1-3)[Neu5Ac(a2-6)Gal(b1-4)GlcNAc(b1-2)Man(a1-6)]Man(b1-4)GlcNAc(b1-4)GlcNAc
# Summary of the method: as §1
# [27] = target: Neu5Ac(a2-6)Gal(b1-4)GlcNAc(b1-2)Man(a1-6)Man(b1-4)GlcNAc(b1-4)GlcNAc
# Summary of the method: as §1
# [28] = target: Neu5Ac(a2-6)Gal(b1-4)GlcNAc(b1-2)Man(a1-6)[Gal(b1-4)GlcNAc(b1-2)Man(a1-3)]Man(b1-4)GlcNAc(b1-4)GlcNAc
# Summary of the method: as §1
# [29] = target: Neu5Ac(a2-6)Gal(b1-4)GlcNAc(b1-2)Man(a1-6)[GlcNAc(b1-2)Man(a1-3)]Man(b1-4)GlcNAc(b1-4)GlcNAc
# Summary of the method: as §1
binder,measurement,setting,value
B1,glycan array binding signal (z-score),[1],0.473
same,glycan array binding signal (z-score),[2],1.14
same,glycan array binding signal (z-score),[3],0.681
same,glycan array binding signal (z-score),[4],-0.311
same,glycan array binding signal (z-score),[5],-0.3
same,glycan array binding signal (z-score),[6],-0.326
same,glycan array binding signal (z-score),[7],-0.257
same,glycan array binding signal (z-score),[8],-0.264
same,glycan array binding signal (z-score),[9],-0.242
same,glycan array binding signal (z-score),[10],-0.112
same,glycan array binding signal (z-score),[11],-0.308
same,glycan array binding signal (z-score),[12],-0.311
same,glycan array binding signal (z-score),[13],-0.321
same,glycan array binding signal (z-score),Neu5Ac(a2-3)GalNAc,0.541
same,glycan array binding signal (z-score),[14],-0.279
same,glycan array binding signal (z-score),[15],-0.324
same,glycan array binding signal (z-score),[16],-0.325
same,glycan array binding signal (z-score),[17],-0.149
same,glycan array binding signal (z-score),[18],0.962
same,glycan array binding signal (z-score),Neu5Ac(a2-6)Gal,-0.321
same,glycan array binding signal (z-score),[19],-0.319
same,glycan array binding signal (z-score),Neu5Ac(a2-6)Gal(b1-4)Glc,-0.313
same,glycan array binding signal (z-score),[20],-0.318
same,glycan array binding signal (z-score),[21],-0.245
same,glycan array binding signal (z-score),[22],-0.322
same,glycan array binding signal (z-score),[23],0.487
same,glycan array binding signal (z-score),[24],-0.311
same,glycan array binding signal (z-score),[25],-0.3
same,glycan array binding signal (z-score),[26],-0.324
same,glycan array binding signal (z-score),[27],-0.279
same,glycan array binding signal (z-score),[28],-0.32
same,glycan array binding signal (z-score),[29],1.25
